# In patent publication US9890133B2 (priority 2011, dated 2018):
# Experiments:
# [1] = tested on: Coxsackie B1; experiment: organism not typed; conditions: read-out: Coxsackie B1 EC50
# [2] = tested on: Rhinovirus; experiment: microbe, parasite or virus in culture; assay type: cell-based; conditions: Enterovirus
# [3] = tested on: Coxsackie B3; experiment: microbe, parasite or virus in culture; conditions: Enterovirus B, B3, read-out: Coxsackie B3 EC50
# [4] = HRV14, read-out: Rhino HRV14 EC50
# [5] = HRV21, read-out: Rhino HRV21 EC50
# [6] = HRV71, read-out: Rhino HRV71 EC50
SMILES,EC50 [1],"EC50 [2, 4]","EC50 [2, 5]","EC50 [2, 6]",EC50 [3]
"COc1cc(C(=O)NC23C(=O)c4c(N)cccc4C2(O)Oc2cc(C(C)C)ccc23)ccn1 (stereo not shown) [Example 234, N-(1-Amino-4b-hydroxy-7-isopropyl-10-oxo-9b,10-dihydro-4bH-indeno[1,2-b]benzofuran-9b-yl)-2-methoxyisonicotinamide]",< 0.01 µg/mL,< 0.01 µg/mL,< 1 µg/mL,< 1 µg/mL,< 0.01 µg/mL
"CC(C)c1ccc2c(c1)OC1(O)c3cccc(N)c3C(=O)C21NC(=O)c1cc2ccccc2s1 (stereo not shown) [Example 235, N-(1-Amino-4b-hydroxy-7-isopropyl-10-oxo-9b,10-dihydro-4bH-benzo[d]indeno[1,2-b]furan-9b-yl)benzo[b]thiophene-2-carboxamide]",< 0.01 µg/mL,< 0.01 µg/mL,< 1 µg/mL,< 1 µg/mL,< 0.01 µg/mL
"CC(C)c1ccc2c(c1)OC1(O)c3cccc(N)c3C(=O)C21NC(=O)c1cnnc2ccccc12 (stereo not shown) [Example 238, N-(1-Amino-4b-hydroxy-7-isopropyl-10-oxo-9b,10-dihydro-4bH-benzo[d]indeno[1,2-b]furan-9b-yl)cinnoline-4-carboxamide]",< 0.01 µg/mL,< 0.01 µg/mL,< 1 µg/mL,,< 0.01 µg/mL
"CC(C)c1ccc2c(c1)OC1(O)c3ccccc3C(=O)C21NC(=O)c1ccc2[nH]cnc2c1 (stereo not shown) [Example 240, N-(4b-hydroxy-7-isopropyl-10-oxo-9b,10-dihydro-4bH-benzo[d]indeno[1,2-b]furan-9b-yl)-1H-benzo[d]imidazole-5-carboxamide]",< 0.01 µg/mL,< 0.01 µg/mL,,,< 0.01 µg/mL
"CC(C)c1ccc2c(c1)OC1(O)c3cccc(N)c3C(=O)C21NC(=O)c1n[nH]cc1[N+](=O)[O-] (stereo not shown) [Example 242, N-(1-Amino-4b-hydroxy-7-isopropyl-10-oxo-9b,10-dihydro-4bH-benzo[d]indeno[1,2-b]furan-9b-yl)-4-nitro-1H-pyrazole-3-carboxamide]",< 0.01 µg/mL,< 0.01 µg/mL,< 1 µg/mL,< 1 µg/mL,< 0.01 µg/mL
"Cc1ccnc(C(=O)NC23C(=O)c4c(N)cccc4C2(O)Oc2cc(C(C)C)ccc23)c1 (stereo not shown) [Example 243, N-(1-Amino-4b-hydroxy-7-isopropyl-10-oxo-9b,10-dihydro-4bH-benzo[d]indeno[1,2-b]furan-9b-yl)-4-methylpicolinamide]",< 0.01 µg/mL,< 0.01 µg/mL,,,< 0.01 µg/mL
"CC(C)c1ccc2c(c1)OC1(O)c3cccc(N)c3C(=O)C21NC(=O)c1cc(C(F)(F)F)ccn1 (stereo not shown) [Example 244, N-(1-Amino-4b-hydroxy-7-isopropyl-10-oxo-9b,10-dihydro-4bH-benzo[d]indeno[1,2-b]furan-9b-yl)-4-(trifluoromethyl)picolinamide]",< 0.01 µg/mL,< 0.01 µg/mL,,< 1 µg/mL,< 0.01 µg/mL
"CC(C)c1ccc2c(c1)OC1(O)c3cccc(N)c3C(=O)C21NC(=O)c1ccc(C#N)cn1 (stereo not shown) [Example 245, N-(1-Amino-4b-hydroxy-7-isopropyl-10-oxo-9b,10-dihydro-4bH-benzo[d]indeno[1,2-b]furan-9b-yl)-5-cyanopicolinamide]",< 0.01 µg/mL,< 0.01 µg/mL,< 1 µg/mL,< 1 µg/mL,< 0.01 µg/mL
"CC(C)c1ccc2c(c1)OC1(O)c3cccc(N)c3C(=O)C21NC(=O)c1ncccc1Cl (stereo not shown) [Example 246, N-(1-Amino-4b-hydroxy-7-isopropyl-10-oxo-9b,10-dihydro-4bH-benzo[d]indeno[1,2-b]furan-9b-yl)-3-chloropicolinamide]",< 0.01 µg/mL,< 0.01 µg/mL,,,< 0.01 µg/mL
"COc1cc(C(=O)NC23C(=O)c4c(N)cccc4C2(O)Oc2cc(C(C)C)ccc23)nc2ccccc12 (stereo not shown) [Example 247, N-(1-Amino-4b-hydroxy-7-isopropyl-10-oxo-9b,10-dihydro-4bH-benzo[d]indeno[1,2-b]furan-9b-yl)-4-methoxyquinoline-2-carboxamide]",< 0.01 µg/mL,0.036 µg/mL,,,0.013 µg/mL

# Where two headings read alike, the source gives them in different places.
